The other results are listed elsewhere or left out.
Assays:
HSkMC = human skeletal muscle cells; assay: cytotoxicity call (relative viability < 0.9); details: 10 µM
HepG2 = assay: cytotoxicity call (relative viability < 0.9); details: 10 µM
S. aureus RN4220 = assay: growth inhibition call (relative growth <= 0.2); details: 50 µM

| Compound | cytotoxicity call (HSkMC) | cytotoxicity call (HepG2) | growth inhibition call (S. aureus RN4220) |
| --- | --- | --- | --- |
| CCCc1c(SCCCOc2ccc(C(C)=O)c(OCCCC(=O)O)c2CCC)ccc(C(C)=O)c1O | inactive | inactive | active |
| COc1cccc(S(=O)(=O)Nc2ccc3c(c2)OC[C@@H](C)N(C(=O)Cc2cccnc2)C[C@@H](C)[C@H](OC)CN(C)C3=O)c1 | inactive | inactive | inactive |
| Cc1noc(C)c1S(=O)(=O)N(C)C[C@@H]1Oc2ccc(NC(=O)CCCN(C)C)cc2C(=O)N([C@@H](C)CO)C[C@@H]1C | inactive | inactive | inactive |
| Cc1noc(C)c1S(=O)(=O)Nc1ccc2c(c1)C(=O)N([C@@H](C)CO)C[C@@H](C)[C@@H](CN(C)C(=O)Nc1ccccc1)OCCCC[C@H](C)O2 | inactive | inactive | inactive |
| C[C@@H]1CN([C@H](C)CO)C(=O)c2cc(NS(=O)(=O)c3ccccc3)ccc2O[C@@H]1CN(C)Cc1ccc(-c2ccccc2)cc1 | inactive | inactive | inactive |
| O=C1COC2(CN1)COC2 | inactive | inactive | inactive |
| COc1ccc2c3c([nH]c2c1)[C@@H](CO)N(C[C@]13CCN(CC1)C(=O)c1cccnc1)C(=O)c1cccnc1 | inactive | inactive | inactive |
| COc1ccc(S(=O)(=O)N(C)C[C@H]2OCCCC[C@@H](C)Oc3ccc(NC(=O)Nc4ccccc4)cc3C(=O)N([C@@H](C)CO)C[C@H]2C)cc1 | inactive | inactive | inactive |
| C[C@@H]1COS(=O)(=O)N1 | inactive | inactive | inactive |
| O=C(N[C@H]1CC[C@@H](CC(=O)N2CCOCC2)O[C@@H]1CO)c1ccc2c(c1)OCO2 | inactive | inactive | inactive |
| C[C@@H]1CN([C@@H](C)CO)C(=O)c2cc(-c3cccnc3)cnc2O[C@@H]1CN(C)Cc1ccc(-c2ccccc2)cc1 | inactive | inactive | inactive |
| O=C(NCC(O)CO)c1c(I)c(C(=O)NCC(O)CO)c(I)c(N(CCO)C(=O)CO)c1I (centres undefined) | inactive | active | inactive |
| C[C@@H]1CN([C@H](C)CO)C(=O)c2cccc(NC(=O)c3ccc(-c4nccs4)cc3)c2O[C@@H]1CN(C)C(=O)Nc1ccccc1 | inactive | inactive | inactive |
| C[C@@H]1CCCCO[C@H](CN(C)Cc2ccc3c(c2)OCO3)[C@@H](C)CN([C@H](C)CO)C(=O)c2cc(NC(=O)Nc3ccc(C(F)(F)F)cc3)ccc2O1 | active | active | inactive |
| C(=N\c1ccccc1)/c1ccc(Oc2ccccc2)cc1 | inactive | inactive | inactive |
| C[C@@H]1CN([C@H](C)CO)S(=O)(=O)c2ccc(-c3ccccc3F)cc2O[C@H]1CN(C)Cc1cncnc1 | inactive | inactive | inactive |
| COc1ccc([N+](=O)[O-])cc1CNCCO | inactive | inactive | inactive |
| C[C@H](CO)N1C[C@H](C)[C@H](CN(C)S(=O)(=O)c2ccccc2)Oc2ncc(C#CCN(C)C)cc2C1=O | inactive | inactive | inactive |
| OCC1OC(OC2(CCl)OC(CCl)C(O)C2O)C(O)C(O)C1Cl (centres undefined) | inactive | inactive | inactive |
| CCOc1ccc(-n2c([C@@H](C)N(Cc3cccnc3)C(=O)Cc3ccc(F)c(C(F)(F)F)c3)nc3ncccc3c2=O)cc1 | inactive | inactive | inactive |
| CCCNC(=O)Nc1ccc2c(c1)OC[C@@H](C)N(C(=O)C1CCOCC1)C[C@H](C)[C@H](OC)CN(C)C2=O | inactive | inactive | inactive |
| C[C@H](CO)N1C[C@H](C)[C@@H](CN(C)S(=O)(=O)c2ccc(-n3cccn3)cc2)OCc2cn(nn2)CCCC1=O | inactive | inactive | inactive |
| CC(C)NC(=O)N(C)C[C@H]1OCCCC[C@@H](C)Oc2ccc(NS(=O)(=O)c3cn(C)cn3)cc2C(=O)N([C@@H](C)CO)C[C@@H]1C | inactive | inactive | inactive |
| COc1ccc(S(=O)(=O)Nc2ccc3c(c2)CC(=O)N([C@H](C)CO)C[C@@H](C)[C@@H](CN(C)Cc2ccc(-c4ccccc4)cc2)O3)cc1 | active | active | inactive |

| Compound | cytotoxicity call (HSkMC) | cytotoxicity call (HepG2) | growth inhibition call (S. aureus RN4220) |
| --- | --- | --- | --- |
| Cc1ccc(S(=O)(=O)Nc2cccc3c2O[C@H](CN(C)S(=O)(=O)c2ccc(F)cc2)[C@@H](C)CN([C@@H](C)CO)C3=O)cc1 | inactive | inactive | inactive |
| O=C(C[C@H]1CC[C@H]2NC[C@@H](O)COC[C@@H]2O1)NCCN1CCCC1 | inactive | inactive | inactive |
| Fc1ccc(-c2nc3c4ccccc4c4ccccc4c3[nH]2)cc1 | inactive | active | inactive |
| C[C@@H]1CN([C@H](C)CO)C(=O)c2cc(NC(=O)C3CCCCC3)ccc2O[C@@H](C)CCCCO[C@@H]1CN(C)C(=O)Nc1cccc2ccccc12 | active | active | inactive |
| Cc1noc(C)c1S(=O)(=O)N(C)C[C@H]1Oc2ccc(NC(=O)C3CC3)cc2CC(=O)N([C@H](C)CO)C[C@H]1C | inactive | inactive | inactive |
| C[C@@H]1CCCCO[C@@H](CN(C)C(=O)c2ccncc2)[C@@H](C)CN([C@@H](C)CO)C(=O)c2cc(NC(=O)C3CCCCC3)ccc2O1 | inactive | inactive | inactive |
| CC(C)(C)[S@@](=O)N1Cc2cc(C(=O)NC3CCC3)nc(-c3cccc(-c4ccccc4F)c3)c2[C@H]1CCO | inactive | inactive | inactive |
| C[C@@H]1CCCCO[C@@H](CN(C)C(=O)Nc2ccc3c(c2)OCO3)[C@@H](C)CN([C@H](C)CO)C(=O)c2cc(NC(=O)Nc3ccc(C(F)(F)F)cc3)ccc2O1 | inactive | inactive | inactive |
| C[C@H](CO)N1C[C@H](C)[C@@H](CN(C)C(=O)Cc2ccccc2)OCCCC[C@H](C)Oc2ccc(NC(=O)NC3CCCCC3)cc2C1=O | inactive | inactive | inactive |
| COc1ccc2c3c(n(c2c1)C)[C@H](CO)N(Cc1cc(cc(c1)OC)OC)C[C@]13CN(C1)C(=O)CN1CCOCC1 | inactive | inactive | inactive |
| CC(C)NC(=O)Nc1ccc2c(c1)C(=O)N([C@@H](C)CO)C[C@H](C)[C@@H](CN(C)S(=O)(=O)c1cn(C)cn1)O2 | inactive | inactive | inactive |
| COc1ccc(S(=O)(=O)N(C)C[C@@H]2Oc3ccc(NS(=O)(=O)c4cccs4)cc3CC(=O)N([C@H](C)CO)C[C@H]2C)cc1 | inactive | inactive | inactive |
| C[C@@H]1CN([C@@H](C)CO)C(=O)c2cc(NS(=O)(=O)c3cccs3)ccc2O[C@@H]1CN(C)Cc1ccc(Cl)c(Cl)c1 | inactive | inactive | inactive |
| C[C@H]1CN([C@@H](C)CO)C(=O)c2cc(NC(=O)c3ccncc3)ccc2O[C@H]1CN(C)Cc1ccc2c(c1)OCO2 | inactive | inactive | inactive |
| Cc1ccc(S(=O)(=O)N(C)C[C@H]2Oc3ccc(N(C)C)cc3CC(=O)N([C@@H](C)CO)C[C@@H]2C)cc1 | inactive | inactive | inactive |
| Cc1noc(C)c1NC(=O)Nc1cccc2c1O[C@H](CN(C)C(=O)Nc1cccc3ccccc13)[C@@H](C)CN([C@H](C)CO)C2=O | inactive | inactive | inactive |
| COc1ccc([C@@H]2CC(=O)c3c(O)cc(O[C@@H]4O[C@H](CO[C@@H]5O[C@@H](C)[C@H](O)[C@@H](O)[C@H]5O)[C@@H](O[C@H]5O[C@H](CO)[C@@H](O)[C@H](O)[C@H]5O)[C@H](O)[C@H]4O)cc3O2)cc1O | inactive | inactive | inactive |
| C[C@@H]1CN([C@H](C)CO)S(=O)(=O)c2ccc(C#CC3CC3)cc2O[C@H]1CN(C)C(=O)c1cccc(F)c1 | inactive | inactive | inactive |
| C[C@H]1CCCCO[C@H](CN(C)C(=O)Nc2ccc3c(c2)OCO3)[C@@H](C)CN([C@@H](C)CO)C(=O)c2cc(NC(=O)Nc3ccc(F)cc3)ccc2O1 | inactive | inactive | inactive |
| C[C@@H]1CN([C@@H](C)CO)C(=O)Cc2cc(NC(=O)C3CC3)ccc2O[C@H]1CN(C)S(=O)(=O)c1ccc(F)cc1 | inactive | inactive | inactive |
| CC(=O)Oc1ccc(C(c2ccc(OC(C)=O)cc2)c2ccccn2)cc1 | inactive | inactive | inactive |
| C[C@@H]1CN([C@@H](C)CO)C(=O)c2cc(-c3cccnc3)cnc2O[C@@H]1CN(C)Cc1ccc(Oc2ccccc2)cc1 | inactive | inactive | inactive |
| CCOC(=O)c1ccc(OCCN2C[C@H](O)[C@@H](O)[C@H](O)[C@H]2CO)cc1 | inactive | inactive | inactive |
| Cc1noc(C)c1NC(=O)Nc1ccc2c(c1)CC(=O)N([C@@H](C)CO)C[C@@H](C)[C@H](CN(C)S(=O)(=O)c1ccccc1)O2 | inactive | inactive | inactive |

Reference: the antibiotic and cytotoxicity screens of Wong et al. (2023)
